From PubChem BioAssay (NCATS)
Inconclusive results, whose numbers are uncertain, are shown with a selection of clear calls. Potencies beside an inconclusive call are fits to weak or partial responses and may not hold up. Active and inactive are the calls of the source. Calls follow the shape of the dose curve; as a rule, active = well fitted cell-killing curve with a large enough effect; inconclusive = small, poorly fitted or top-dose-only effect, or effect the other way; inactive = no such curve, though single readings can be large or run the other way.

Assay: Viability qHTS for spleen associated tyrosine kinase inhibitor (SYKi) naive MV4-11 cells (AID 1963823); also: nearly all actives have a fitted effect of over 40% in size
Conditions: MV4-11 AML viability, CellTiter-Glo luminescence, 72 h; viability (% of control): at 45 µM (top of the series)
Procedure, shortened: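 CellTiter-Glo luminescence, 10 min room-temperature incubation, gave viability. Cells: naive MV4-11 (500/well), treated 72 hr at 37 C, 5% CO2.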
Potency is read from the fitted curve at half-maximal effect; tags tell the direction and shape of the fitted curve.

Row | Structure (SMILES) | Potency | viability (% of control)
1 | O=C(c1cn(Cc2cncn2Cc2ccc(Br)cc2)cc1-c1cccc2ccccc12)N1CCOCC1 | active: 0.82 µM | –
2 | C[C@]12CCCN1CC1=NNC(=O)c3cc(F)cc4[nH]c2c1c34 | active: 2.63 µM | –
3 | CC(C)c1cc2c(N3CCN(C4=NCC(C)(C)S4)CC3)ncnc2s1 | inconclusive: 2.91 µM [cytotoxic, partial curve] | –
4 | CCOC(=O)c1cc2ccc(O)cc2oc1=O | inconclusive: 29.1 µM [cytotoxic, single point] | –
5 | O=C(O[C@H]1[C@H](Oc2ccc(O)cc2CO)O[C@H](CO)[C@@H](O)[C@@H]1O)c1ccccc1 | inactive | –
6 | CC/C=C/CC1=C(CCCCC(CCC(=O)O)OC(C)=O)CCC1=O (stereo not given) | inconclusive: 14.3 µM [cytotoxic, single point] | –
7 | CC(C)=CCC[C@](C)(O[C@@H]1O[C@H](CO[C@@H]2O[C@H](CO)[C@@H](O)[C@H](O)[C@H]2O)[C@@H](O)[C@H](O)[C@H]1O)C1CC[C@]2(C)[C@@H]1[C@H](O)CC1[C@@]3(C)CC[C@H](O[C@@H]4O[C@H](CO)[C@@H](O)[C@H](O)[C@H]4O[C@@H]4O[C@H](CO)[C@@H](O)[C@H](O)[C@H]4O)C(C)(C)[C@@H]3CC[C@]12C (stereo not given in full) | – | inactive: 64.5% [at 9.25 µM]
8 | O=C(c1c2ccccc2cc2ccccc12)N1CCC(N2CCC[C@@H](C(=O)N3CCOCC3)C2)CC1 | inactive | –
9 | CN(C)CCOc1ccccc1Cc1ccccc1 | inactive | –
10 | CC(=O)OC/C=C(\C)C(CC1C(C)=C(OC(C)=O)C(=O)C2C(C)(C)C(O)CCC12C)OC(C)=O (stereo not given) | inconclusive: 7.96 µM [cytotoxic, single point] | –
